The supplement of paper PMC10126150
Sequences with one replicate were seen in a single cluster, so their values are uncertain.

Test system: ATP
Assay: switch fluorescence ratio, 500 uM ATP over buffer (Cy3 cluster intensity, sum of 5 cycles each) (fold (ratio)); higher = stronger signal-on switching upon ATP binding; sequences stand for … in TCGTCGGCAGCGTCAGATGTGTATAAGAGACAGTTTTTTTTTTTTTTTTTTTTTTTTT…TC
Details: aptamer strand: ATP DNA aptamer (quencher-CACCTGGGGGAGTATTGCGGAGGAAGG + anchor), 100 nM annealed; ATP concentration: 500 uM; one replicate
In short: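 Per cluster, summed Cy3 intensity from the target cycles was divided by that from the buffer cycles to give the fluorescence ratio, then averaged per switch-domain sequence. Clusters outside 100-1000 RFU were excluded. The Cy3-labelled switching-strand clusters, on a modified Illumina MiSeq flow-cell, were annealed to 100 nM quencher-labelled ATP aptamer and imaged in selection buffer, then after 15 min with 500 uM ATP at 22 °C, for five cycles with NaOH stripping and re-annealing between them.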
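Note: ATP exposure 15 min at 22 °C before imaging.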

## AGGGGGGAG
  switch fluorescence ratio: 0.952

## ACGACTTGTT
  switch fluorescence ratio: 1.01

## GGTCAGATCA
  switch fluorescence ratio: 1.01

## ATGTGTTTTC
  switch fluorescence ratio: 0.996

## TAGCTAGCTG
  switch fluorescence ratio: 0.974

## CCGCCTGATG
  switch fluorescence ratio: 1.13

## ATCCGCTCTT
  switch fluorescence ratio: 1.26

## TCGTTGGCAC
  switch fluorescence ratio: 1.03

## ACGTGCGTA
  switch fluorescence ratio: 0.975

## TCTTCGTACC
  switch fluorescence ratio: 1.2

## GAGAAACAGC
  switch fluorescence ratio: 0.962

## ATTTCTTATA
  switch fluorescence ratio: 1.03

## ATAGGTACTT
  switch fluorescence ratio: 1.03

## AATAGCGG
  switch fluorescence ratio: 0.99

## GTTGTCACAT
  switch fluorescence ratio: 0.977

## TAGTCGTATG
  switch fluorescence ratio: 1.01

## TTCGAGCAAC
  switch fluorescence ratio: 3.19

## GGTGTGGACA
  switch fluorescence ratio: 0.996

## CATAAGTTAA
  switch fluorescence ratio: 1.01

## TGCTACGGCA
  switch fluorescence ratio: 1.06

## GCTCGTAGTA
  switch fluorescence ratio: 1.01

## GCAGATACGA
  switch fluorescence ratio: 1.8

## GGATCCATGT
  switch fluorescence ratio: 0.997

## AGCTAACACT
  switch fluorescence ratio: 1.06

## TGGCGCCAAG
  switch fluorescence ratio: 0.997

## GTTGGAGTC
  switch fluorescence ratio: 0.961

## TGGAAAGTGC
  switch fluorescence ratio: 1.04

## TTTGTTCTAC
  switch fluorescence ratio: 1.12

## TACTTTTCGG
  switch fluorescence ratio: 0.99

## TTATGGCTAA
  switch fluorescence ratio: 0.999

## AAGATGGTTT
  switch fluorescence ratio: 0.978

## CCGGGTCTCA
  switch fluorescence ratio: 1.06

## ATGTTAGTTT
  switch fluorescence ratio: 0.996

## AACCGTGATT
  switch fluorescence ratio: 1.03

## AAAGTTGAA
  switch fluorescence ratio: 0.99

## AGACAACATG
  switch fluorescence ratio: 0.985

## CCATTGGTGT
  switch fluorescence ratio: 1.22

## TTAGGGGTC
  switch fluorescence ratio: 1

## ATTTTTTAA
  switch fluorescence ratio: 0.934

## CTGATGCAAG
  switch fluorescence ratio: 1.67

## GGAATCCTAA
  switch fluorescence ratio: 0.982

## AAAGAATGCT
  switch fluorescence ratio: 1.11

## TCGTATGGGC
  switch fluorescence ratio: 1.01

## CTGAGTCACT
  switch fluorescence ratio: 1.03

## GCTTGTCAGC
  switch fluorescence ratio: 0.992

## TCATCAGGGG
  switch fluorescence ratio: 1.03

## ATAAAACGGA
  switch fluorescence ratio: 0.956

## TAAGGGATAT
  switch fluorescence ratio: 1

## GGGTCGGGAC
  switch fluorescence ratio: 0.993

## TAGCGGCTAA
  switch fluorescence ratio: 1

## TAGCCGAGTC
  switch fluorescence ratio: 1.03

## CATGTCCCTT
  switch fluorescence ratio: 0.982

## TTCGTCTTGG
  switch fluorescence ratio: 0.996

## GTGGTGTTGA
  switch fluorescence ratio: 0.964

## TAGATCCCGG
  switch fluorescence ratio: 0.965

## CGGCGCGT
  switch fluorescence ratio: 0.991

## TCCTTAGACC
  switch fluorescence ratio: 0.993

## TCAGTAGGAT
  switch fluorescence ratio: 1.02

## GTATTGGGAT
  switch fluorescence ratio: 0.992

## GCTAGCCCTG
  switch fluorescence ratio: 1.04

## CGGACGTGTT
  switch fluorescence ratio: 1.12

## GTGGATGTA
  switch fluorescence ratio: 0.991

## TCGTAATGCT
  switch fluorescence ratio: 1.38

## ACGAGCTTTC
  switch fluorescence ratio: 1.25

## ACGGGTGTTC
  switch fluorescence ratio: 1.08

## TTGCGATTTA
  switch fluorescence ratio: 0.971

## GCAGGACTAT
  switch fluorescence ratio: 1.09

## TTAGCAAGGT
  switch fluorescence ratio: 1.22

## ATCAGTTACT
  switch fluorescence ratio: 1.04

## TCAAACTATG
  switch fluorescence ratio: 0.963

## ACTTGTATCC
  switch fluorescence ratio: 1.02

## GCTCTGCAGC
  switch fluorescence ratio: 2.45

## CCACAAGGCT
  switch fluorescence ratio: 1.65

## AACCAGGCGC
  switch fluorescence ratio: 1.1

## TTACAGTTAT
  switch fluorescence ratio: 1.02

## TAGTCAAGGA
  switch fluorescence ratio: 0.972

## TGTCGAATAT
  switch fluorescence ratio: 0.94

## AATGCGAAAA
  switch fluorescence ratio: 1.01

## TTTAATATTC
  switch fluorescence ratio: 0.977

## TGGGGGATAA
  switch fluorescence ratio: 1.02

## GTATGTGGGC
  switch fluorescence ratio: 1.08

## CCTGCGTCTC
  switch fluorescence ratio: 3.07

## CAAATGATCC
  switch fluorescence ratio: 0.998

## GATCTTATAA
  switch fluorescence ratio: 1

## TTAGTTTACA
  switch fluorescence ratio: 1.05

## GGCGGGATAA
  switch fluorescence ratio: 1.07

## CGGGGTTAGA
  switch fluorescence ratio: 0.99

## GATAAATTAT
  switch fluorescence ratio: 1.01

## GTGTTCATTA
  switch fluorescence ratio: 0.991

## CTTGAATATT
  switch fluorescence ratio: 1.04

## AGACGTCAGG
  switch fluorescence ratio: 0.98

## AAAGCTCGTT
  switch fluorescence ratio: 1.08

## AATTACCTGG
  switch fluorescence ratio: 0.971

## CATGGTTTGT
  switch fluorescence ratio: 0.998

## ACATGCATAC
  switch fluorescence ratio: 3.16

## AAATATATCA
  switch fluorescence ratio: 1.03

## GAGATGGGAG
  switch fluorescence ratio: 1.02

## TCAGTAAGAT
  switch fluorescence ratio: 1.03

## GTTCAGAGCC
  switch fluorescence ratio: 1

## TCGACGGGAA
  switch fluorescence ratio: 1.28

## TGAAGTTAGA
  switch fluorescence ratio: 1.02

## GCGTCCTTAG
  switch fluorescence ratio: 1.01

## TTCTTATTTA
  switch fluorescence ratio: 0.997

## TTGCGTTGAA
  switch fluorescence ratio: 1.01

## CTATAACTTG
  switch fluorescence ratio: 0.992

## GTGTACGTTT
  switch fluorescence ratio: 0.973

## TTAACGGAA
  switch fluorescence ratio: 1.05

## ACGTTTGGTC
  switch fluorescence ratio: 1.02

## ACTGCAGCTG
  switch fluorescence ratio: 1.04

## CAAATACATT
  switch fluorescence ratio: 1.08

## TGCCGATGGA
  switch fluorescence ratio: 0.994

## AACCCTGCTA
  switch fluorescence ratio: 1

## ATATGCAAGT
  switch fluorescence ratio: 1.02

## ACGGGTCCCG
  switch fluorescence ratio: 0.96

## TTTGGTTGTC
  switch fluorescence ratio: 1.02

## TCCGAGAAGC
  switch fluorescence ratio: 1.45

## CTGGTAAACC
  switch fluorescence ratio: 1.05

## CTGACTGAAA
  switch fluorescence ratio: 0.982

## GTCAGTTCTT
  switch fluorescence ratio: 0.968

## GAGCACTTCT
  switch fluorescence ratio: 1.02

## CTAGAAAAAC
  switch fluorescence ratio: 1.39

## ATCGAAAATA
  switch fluorescence ratio: 1.04

## TTTGTACTGC
  switch fluorescence ratio: 1.06

## CCTCACTTGT
  switch fluorescence ratio: 1.1

## CGTCCTGTT
  switch fluorescence ratio: 0.987

## TGGGGTCCG
  switch fluorescence ratio: 1.01

## CGAAGCTATT
  switch fluorescence ratio: 2.5

## AAGATCG
  switch fluorescence ratio: 0.989

## CATAACCCCA
  switch fluorescence ratio: 1.09

## TTGTGGCACC
  switch fluorescence ratio: 1.01

## AACTGTCCCG
  switch fluorescence ratio: 1.01

## TTTTACGATA
  switch fluorescence ratio: 1.11

## CAATAAAGTC
  switch fluorescence ratio: 0.981

## GCAAGCACGC
  switch fluorescence ratio: 1.33

## TACGCCTTGG
  switch fluorescence ratio: 1.01

## GCGTTGAGCG
  switch fluorescence ratio: 0.978

## ATCCAATTGC
  switch fluorescence ratio: 1.1

## GCCTTTCCAC
  switch fluorescence ratio: 1.17

## CTGACGTAAC
  switch fluorescence ratio: 3.6

## GACTTTATTC
  switch fluorescence ratio: 1.01

## GACCCATCTT
  switch fluorescence ratio: 0.984

## AGTGGCTTCT
  switch fluorescence ratio: 1.03

## ACGGGCTCCC
  switch fluorescence ratio: 1.1

## CGCACTGGTG
  switch fluorescence ratio: 2.08

## AATGTAAATT
  switch fluorescence ratio: 0.995

## TAAGTAAGAA
  switch fluorescence ratio: 0.974

## GAGATCCGCA
  switch fluorescence ratio: 1.74

## GCTGGAGGTA
  switch fluorescence ratio: 0.974

## AAGTACTCCT
  switch fluorescence ratio: 1.4

## TCTAGGTCAT
  switch fluorescence ratio: 1

## GTATTTCTGC
  switch fluorescence ratio: 0.899

## CCAATTTT
  switch fluorescence ratio: 1.01

## GACTTTATAT
  switch fluorescence ratio: 1.01

## AAATGGCGCA
  switch fluorescence ratio: 1.01

## TGAAAGGCG
  switch fluorescence ratio: 0.992

## CGCCTCCACA
  switch fluorescence ratio: 1.76

## GGGG
  switch fluorescence ratio: 1.01

## GAAGGCTAGG
  switch fluorescence ratio: 1.01

## GAATGGAAGG
  switch fluorescence ratio: 0.974

## TGAATATCC
  switch fluorescence ratio: 1.04

## GACAGAGGCA
  switch fluorescence ratio: 1.03

## TGCGAACTTT
  switch fluorescence ratio: 0.987

## GAAGGTCTAT
  switch fluorescence ratio: 0.998

## CGTGCCTACA
  switch fluorescence ratio: 1.02

## TCTGTGGATG
  switch fluorescence ratio: 0.958

## TCCCTCACGG
  switch fluorescence ratio: 1.34

## ATAGCTTTGT
  switch fluorescence ratio: 1.04

## CGTGATTTAA
  switch fluorescence ratio: 1.05

## TTCATATAAG
  switch fluorescence ratio: 1

## TTAGTGTAGT
  switch fluorescence ratio: 1.03

## ATACGAGGGG
  switch fluorescence ratio: 0.979

## GGTACAACTT
  switch fluorescence ratio: 0.956

## ATGAATTTAT
  switch fluorescence ratio: 1.05

## GGGAGCATT
  switch fluorescence ratio: 0.965

## TAGGCGAGCT
  switch fluorescence ratio: 1.05

## TCGAGTGACT
  switch fluorescence ratio: 0.978

## TCGAAGGGAT
  switch fluorescence ratio: 1.01

## TCAGTCTGAC
  switch fluorescence ratio: 0.979

## AGAATTCTGT
  switch fluorescence ratio: 0.97

## GCCCACAATA
  switch fluorescence ratio: 1.53

## TAGTATACCT
  switch fluorescence ratio: 1.14

## AGCGGGACGT
  switch fluorescence ratio: 1.01

## CGGATGCTTT
  switch fluorescence ratio: 0.904

## TACATATCCT
  switch fluorescence ratio: 1.04

## GTTCATGTAA
  switch fluorescence ratio: 0.972

## AGGTGGGTCG
  switch fluorescence ratio: 1.02

## ATTGACTGTT
  switch fluorescence ratio: 1.02

## CAGATATCAC
  switch fluorescence ratio: 1.02

## GGCATCAGCT
  switch fluorescence ratio: 1.02

## ATCTCGTACG
  switch fluorescence ratio: 0.989

## TCGCTGAACC
  switch fluorescence ratio: 1.43

## GCTTGAGTCA
  switch fluorescence ratio: 0.985

## ATCATATCGC
  switch fluorescence ratio: 0.993

## AGAGACCTGT
  switch fluorescence ratio: 0.951

## TGTCCCCC
  switch fluorescence ratio: 1.11

## CCTGCTATGA
  switch fluorescence ratio: 1.33

## AATGTAGAGC
  switch fluorescence ratio: 1.06

## TTGCATTGCC
  switch fluorescence ratio: 0.956

## AATGGAGGGC
  switch fluorescence ratio: 0.955

## ACGTTGACTT
  switch fluorescence ratio: 1.14

## CTGATAATTC
  switch fluorescence ratio: 1.04
